Measurements reported in the supplement of paper PMC7125110.
± gives the standard error. This sample is rich in variants without activity.

B1: glmS ribozyme (parent)
chain: AUAAAAGCGCCAGAACUACAGAAAUGUAGUUGACGAGGAGGAGGUUUAUCGAAUUUUCGGCGGAUGCCUCCAAA

How the values were obtained:
Conditions in all cases: with glucosamine-6-phosphate
[1] = variants of: B1; assay: self-cleavage kobs at 40 uM GlcN6P; higher = faster cleavage; RNA array
Procedure, shortened: (§1)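 Tiles of sequenced MiSeq chips were imaged over ~14 h at 37 °C. On them, barcoded ribozyme variants had been transcribed in situ by E. coli RNA polymerase and were tracked via a hybridised Cy3 probe while glucosamine-6-phosphate (40 μM to 10 mM) in HEPES/KCl/Mg(OAc)2 buffer flowed in. Per-tile medians, normalised to baseline and to non-cleaving reference variants, were fit to one- or two-exponential decays for kobs, and weighted Michaelis–Menten fits gave kcat and KM.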

[2] = variants of: B1; assay: self-cleavage kobs at 640 uM GlcN6P; higher = faster cleavage; RNA array
Procedure, shortened: as §1

[3] = variants of: B1; assay: self-cleavage kobs at 2500 uM GlcN6P; higher = faster cleavage; RNA array
Procedure, shortened: as §1

[4] = variants of: B1; assay: self-cleavage kobs at 10000 uM GlcN6P; higher = faster cleavage; RNA array
Procedure, shortened: as §1

[5] = variants of: B1; assay: self-cleavage kobs at 160 uM GlcN6P; higher = faster cleavage; RNA array
Procedure, shortened: as §1

| Variant | self-cleavage kobs at 40 uM GlcN6P [1] [s⁻¹] | self-cleavage kobs at 640 uM GlcN6P [2] [s⁻¹] | self-cleavage kobs at 2500 uM GlcN6P [3] [s⁻¹] | self-cleavage kobs at 10000 uM GlcN6P [4] [s⁻¹] | self-cleavage kobs at 160 uM GlcN6P [5] [s⁻¹] |
| --- | --- | --- | --- | --- | --- |
| A12C U45A U47C C50A G59C C70U | < 1e-05 | < 1e-05 | < 1e-05 | < 1e-05 | – |
| A12C U45G | 0.000128 ± 4.1e-05 | – | – | 0.012 ± 0.004 | – |
| A12C U46C G60A | < 1e-05 | – | < 1e-05 | – | – |
| A12C U47C | 5.87e-05 ± 6.2e-06 | 0.000953 ± 0.00013 | 0.00187 ± 0.00022 | – | 0.000185 ± 3.6e-05 |
| A12C U54C | 0.00107 ± 0.00014 | 0.0063 ± 0.0021 | 0.0137 ± 0.0032 | 0.0203 ± 0.0043 | 0.00117 ± 0.00027 |
| A12C U56G | 0.000162 ± 2.5e-05 | 0.00336 ± 0.00068 | 0.0054 ± 0.0014 | – | 0.000652 ± 0.00018 |
| A12C U57A G62A | < 1e-05 | – | – | – | – |
| A12G A14G G43C | < 1e-05 | – | < 1e-05 | – | – |
| A12G A15C A48C | < 1e-05 | < 1e-05 | – | – | – |
| A12G A15C G35U C71U | < 1e-05 | – | – | – | – |
| A12G A15G C70A | < 1e-05 | – | 5.85e-05 ± 1.1e-05 | 8.6e-05 ± 3.1e-05 | – |
| A12G A33G C34U A48C C71G | < 1e-05 | – | – | – | – |
| A12G A33G U57G | < 1e-05 | – | – | – | – |
| A12G A33U | < 1e-05 | – | – | < 1e-05 | – |
| A12G A52G | < 1e-05 | – | – | – | – |
| A12G C16A A36G U69C | < 1e-05 | – | – | – | – |
| A12G C34U A36U | < 1e-05 | < 1e-05 | – | < 1e-05 | < 1e-05 |
| A12G C50U | < 1e-05 | – | – | – | – |
| A12G G13A | < 1e-05 | – | – | – | – |
| A12G G13A G59A | < 1e-05 | – | – | – | – |

| Variant | self-cleavage kobs at 40 uM GlcN6P [1] [s⁻¹] | self-cleavage kobs at 640 uM GlcN6P [2] [s⁻¹] | self-cleavage kobs at 2500 uM GlcN6P [3] [s⁻¹] | self-cleavage kobs at 10000 uM GlcN6P [4] [s⁻¹] | self-cleavage kobs at 160 uM GlcN6P [5] [s⁻¹] |
| --- | --- | --- | --- | --- | --- |
| A12G G13C A33C G44C U49G | < 1e-05 | – | – | < 1e-05 | – |
| A12G G32C | < 1e-05 | – | – | – | < 1e-05 |
| A12G G32U A33C | < 1e-05 | – | – | – | – |
| A12G G35C A36C | < 1e-05 | – | – | – | – |
| A12G G35C G60A U65G C68G | 0.000127 ± 3.9e-05 | – | 0.000384 ± 0.00015 | 0.000121 ± 4.1e-05 | – |
| A12G G38C A39G G41U U46G U47A | < 1e-05 | – | < 1e-05 | < 1e-05 | – |
| A12G G38U A39U | < 1e-05 | < 1e-05 | – | – | – |
| A12G G40A U55C | < 1e-05 | – | – | – | – |
| A12G G51U | < 1e-05 | < 1e-05 | – | < 1e-05 | – |
| A12G U30A G38A | < 1e-05 | – | – | < 1e-05 | – |
| A12G U31A G35U G40U G44A | < 1e-05 | – | – | < 1e-05 | – |
| A12G U49G | < 1e-05 | – | – | – | < 1e-05 |
| A12G U55C U57C C70A | < 1e-05 | – | – | < 1e-05 | – |
| A12U A14C | 0.000142 ± 1.3e-05 | 0.00117 ± 0.00016 | 0.00261 ± 0.00038 | 0.00546 ± 0.00066 | 0.000429 ± 6.9e-05 |
| A12U A14G | 0.00336 ± 0.00044 | 0.0265 ± 0.0078 | – | – | 0.00737 ± 0.0027 |
| A12U A14U A53G | 0.000135 ± 3.3e-05 | – | – | – | – |
| A12U A33C G37C | < 1e-05 | – | – | – | – |
| A12U A33U G41U G60A | < 1e-05 | – | – | < 1e-05 | – |
| A12U A36G A52U C71G | < 1e-05 | – | < 1e-05 | < 1e-05 | – |
| A12U A36G A53G | < 1e-05 | – | – | – | – |

| Variant | self-cleavage kobs at 40 uM GlcN6P [1] [s⁻¹] | self-cleavage kobs at 640 uM GlcN6P [2] [s⁻¹] | self-cleavage kobs at 2500 uM GlcN6P [3] [s⁻¹] | self-cleavage kobs at 10000 uM GlcN6P [4] [s⁻¹] | self-cleavage kobs at 160 uM GlcN6P [5] [s⁻¹] |
| --- | --- | --- | --- | --- | --- |
| A12U A36G C58U A64G C68U C70U | < 1e-05 | – | – | < 1e-05 | – |
| A12U A52C C58U C71U | < 1e-05 | – | – | – | – |
| A12U C61U | < 1e-05 | – | – | – | < 1e-05 |
| A12U C68G C70G | < 1e-05 | – | – | – | – |
| A12U G13U A48G G60A G62A | < 1e-05 | < 1e-05 | – | < 1e-05 | < 1e-05 |
| A12U G13U G35A G62A C71G | < 1e-05 | – | – | < 1e-05 | – |
| A12U G29U C61U | < 1e-05 | – | – | < 1e-05 | – |
| A12U G35C A42C G60U C68A | < 1e-05 | – | – | – | – |
| A12U G37U | < 1e-05 | < 1e-05 | – | – | – |
| A12U G40U C61A | < 1e-05 | – | – | – | – |
| A12U G41A C68U | < 1e-05 | – | – | – | – |
| A12U G41C G43U | < 1e-05 | – | – | – | – |
| A12U G41U A42G | 0.000102 ± 1.6e-05 | – | – | 0.00149 ± 0.0003 | – |
| A12U G44U A48C C71G | < 1e-05 | < 1e-05 | < 1e-05 | – | < 1e-05 |
| A12U G59C U65G | < 1e-05 | – | – | – | – |
| A12U G62C | < 1e-05 | < 1e-05 | < 1e-05 | < 1e-05 | < 1e-05 |
| A12U G66C | 6.36e-05 ± 1.1e-05 | 0.00058 ± 0.00016 | 0.00145 ± 0.00028 | 0.00177 ± 0.00022 | – |
| A12U U30A G59C | < 1e-05 | – | – | – | – |
